Data from PubChem BioAssay AID1508623 (National Center for Advancing Translational Sciences (NCATS), 2021).
The campaign covered roughly 48,000 compounds. About 450 (0.94%) were called active. About 19% were inconclusive and are not listed. Calls come from the whole dose curve; as a rule, active = well fitted inhibition curve with a large enough effect; inconclusive = small, poorly fitted or top-dose-only effect; inactive = no such curve, though single readings can be large or run the other way. Some of the results follow.

Assay: Primary qHTS for Identification of Small Molecule Inhibitors of Huntingtin Promoter Activity; note: nearly all actives have a fitted effect of over 50% in size
Settings: HEK293 HTT promoter firefly luciferase reporter (activity 0% = vehicle and -100% = no light), 24 h; series mostly up to 57.5 µM; activity change, negative = inhibition: at the top concentration
Outline: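 HEK293 Fluc reporter, 2,500 cells/well, 24 h pre-culture; cpds up to 57.5 uM final, 24 h 37 degrees C; Dual-Glo, 10 min RT; normalized vehicle = 0%, zero RLU = -100%.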
Potency is the fitted concentration of half-maximal effect.

| SMILES | activity change, negative = inhibition | Potency |
| --- | --- | --- |
| Cc1cc(Nc2ccccc2F)n2nc(-c3ccccc3)nc2n1 | inactive: -15.5% |  |
| COC(=O)c1ccc(Cl)cc1NC(=O)N1CC2CCCN2c2ccccc21 (stereo unspecified) | inactive: -32.5% |  |
| COc1ccc(S(=O)(=O)NCc2ccc3c(c2)CCN3C(=O)c2ccccc2)cc1OC | inactive: -26.6% |  |
| COc1ccc(NC(=O)CN2C(=O)CCn3nc(-c4cccn4C)cc32)cc1 | inactive: 0% |  |
| Cc1cc(C)c(Nc2nc3ccccc3n3c(C)nnc23)c(C)c1 | inactive: -7.11% |  |
| COc1ccccc1OCCn1c(NC(=O)c2ccccc2Cl)nc2ccccc21 | inactive: -31.7% |  |
| Cc1ccc(NC(=O)C(=O)NCC(c2cccnc2)N2CCN(Cc3ccccc3)CC2)cc1C (stereo unspecified) | inactive: -27.4% |  |
| COc1cccc(CNC(=O)C2CCC(CNS(=O)(=O)c3ccc4c(c3)CCCC(=O)N4)CC2)c1 (stereo unspecified) | inactive: -1.65% |  |
| Cc1ccc(NC(=O)CSc2nnc3scc(-c4ccc(Cl)cc4)n23)cc1 | inactive: -26% |  |
| CCN(CC)CCCNc1oc(/C=C/c2ccc(OC)c(OC)c2)nc1C#N | inactive: -17.1% |  |
| COc1ccc(NC(=O)Cn2cc(S(=O)(=O)N3CCN(c4ccccc4F)CC3)c3ccccc3c2=O)cc1Cl | inactive: -19.5% |  |
| CCOc1ccc(-c2cc(C(=O)N3CCN(c4cc(Cl)ccc4C)CC3)c3ccccc3n2)cc1 | inactive: -16.1% |  |
| CNc1c(NC(=O)c2ccc(OC)c(OC)c2)c(=O)oc2ccccc12 | inactive: 6.21% |  |
| CN(C)c1nc(Cc2ccc(NC(=O)c3ccc(C(F)(F)F)cc3)cc2)nc(N(C)C)c1CC(=O)O | inactive: 0.739% |  |
| Cc1cc2c(cc1S(=O)(=O)CCC(=O)N1CCC(C)CC1)OCC(=O)N2 | inactive: -5.82% |  |
| CCc1ccc(C(=O)c2cn(CC(=O)Nc3ccc4c(c3)OCO4)c3ccc(CC)cc3c2=O)cc1 | inactive: -17.8% |  |
| Cc1cc(C)cc(NC(=O)NCCc2c(C)nn(C)c2C)c1 | inactive: -20.5% |  |
| CCC(Cn1nnc2ccccc2c1=O)NC(=O)Nc1cc(C)cc(C)c1 (stereo unspecified) | inactive: -10.7% |  |
| CC(C)C(=O)Nc1nnc2n1CCS2 | inactive: -4.16% |  |
| Cc1nc(N2CCCC2)c2c(C(=O)N3CCN(c4ccccc4)CC3)c(C)oc2n1 | inactive: -3.9% |  |
| Cc1cc2c(n1-c1ccc(C(=O)NCCc3ccc(Cl)cc3)cc1)CCCC2 | inactive: 14.7% |  |
| CCOc1cc2sc(N3CCC(C(=O)Nc4ccc(CC)cc4)CC3)nc2cc1Br | inactive: 101% |  |
| CC(=O)N1CCCc2cc(S(=O)(=O)N3CCCC(C(=O)N4CCN(c5cccc(Cl)c5)CC4)C3)ccc21 (stereo unspecified) |  | active: 7.08 µM |
| Cc1ccc(C)c(CSc2nnc3[nH]c(=O)cc(C)n23)c1 | inactive: -8.22% |  |

| SMILES | activity change, negative = inhibition | Potency |
| --- | --- | --- |
| COc1ccc(C)cc1NC(=O)c1noc2c1CSc1ccccc1-2 | inactive: -14.1% |  |
| COc1ccc(C2C(C(=O)Nc3ccccc3)=C(C)Nc3c(C(=O)Nc4ccccc4)cnn32)cc1 (stereo unspecified) | inactive: -0.159% |  |
| COCCNC(=O)CCC(=O)NNc1nc2ccccc2c2nc(C)nn12 | inactive: -13.2% |  |
| Cc1ccc(C)c(N2CCN(C(=O)c3cn(CC(C)C)c(=O)c4c3c3ccccc3n4C)CC2)c1 | inactive: -11.6% |  |
| COc1ccc(Br)cc1C1C(C(=O)Nc2ccc(C)cc2C)=C(C)Nc2ncnn21 (stereo unspecified) | inactive: -12.5% |  |
| Cc1ccc(NC(=O)C2(c3cccs3)CCOCC2)cc1Cl | inactive: -10.9% |  |
| Cc1ccc(C)c(CSc2nc(-c3ccccc3F)nc3c2Cc2c(CO)cnc(C)c2O3)c1 | inactive: -11.1% |  |
| COc1cccc(NC(=O)Cn2nnc(C(=O)NCc3cccs3)c2N)c1 | inactive: -6.21% |  |
| Cc1ccc2c(CNCCc3ccccc3)c(C(=O)O)n(Cc3ccccc3C)c2c1 | inactive: -7.61% |  |
| Cc1cccc(N(C)c2nc3ccccc3c3nnc(C)n23)c1 | inactive: -11% |  |
| CCOc1ccc(C(=O)Cn2c(=O)n3nc(CCn4nc(C)cc4C)nc3c3cc(OC)c(OC)cc32)cc1 | inactive: -18.1% |  |
| Cc1ccccc1N1CCN(S(=O)(=O)c2nnc(NC(=O)c3ccc(C(C)C)cc3)s2)CC1 | inactive: -24.2% |  |
| CCCCCn1c(NCc2ccc(OC)cc2)nc2ccccc21 | inactive: -45.4% |  |
| Cc1ccc(NC(=O)CSc2nnc(-c3ccc([N+](=O)[O-])cc3)o2)c(C)c1 | inactive: 6.67% |  |
| Cc1ccc(C(=O)c2cn(CC(=O)Nc3ccc(C(C)C)cc3)c3nc(C)ccc3c2=O)cc1 | inactive: 7.59% |  |
| Cc1cc(C)n(-c2nc3ccccc3nc2Nc2ccc(N(C)C)cc2)n1 | inactive: -4.65% |  |
| COc1ccc(-n2nc(C(=O)Nc3ccccn3)c3c4ccccc4n(C)c3c2=O)cc1 | inactive: -11.8% |  |
| CCOC(=O)c1ccc(NC(=O)c2cnc3c(-c4ccc(F)cc4)c(C)nn3c2C)cc1 | inactive: -14.2% |  |
| CCOc1ccc(-c2nc3c(c(SCC(=O)Nc4ccccc4C)n2)Cc2ccccc2O3)cc1 | inactive: -10.5% |  |
| Cc1cc(C)cc(NC(=O)Cn2c(-c3cncs3)nc3ccccc32)c1 | inactive: -12.2% |  |
| Cc1ccccc1NC(=O)CC(NCc1cccnc1)C(=O)O (stereo unspecified) | inactive: -2.55% |  |
| Cc1ccccc1CNC(=O)c1ccc2c(c1)c(C)c(C)n2C | inactive: 1.86% |  |
| CN(C)c1ccc(CNC(=O)c2ccc(Cn3c(SCc4ccccc4)nc4cccnc43)cc2)cc1 | inactive: -16.2% |  |
| Cc1ccc(Cl)cc1NC(=O)C1CCN(c2nnc(C)c3c(C)n(-c4ccccc4)nc23)CC1 | inactive: 0.363% |  |

| SMILES | activity change, negative = inhibition | Potency |
| --- | --- | --- |
| CCc1ccc(CNC(=O)c2cnc3sc(N4CCCC4)nn3c2=O)cc1 | inactive: 9.14% |  |
| Cc1cc(C)c(Cn2c3ccccc3c3cnn(CC(=O)NCc4cccs4)c(=O)c32)c(C)c1 | inactive: -21.4% |  |
| CCc1ccc(-n2c(=O)c3c4c(sc3n(CC(=O)c3ccc(F)cc3)c2=O)CCC4)cc1 | inactive: -7.49% |  |
| COc1ccc(-c2ccc3c(N)c(C(=O)c4ccc(OC)c(OC)c4)sc3n2)cc1 | inactive: 6.71% |  |
| CCC(C)NC(=O)CCCN1C(=O)CCn2nc(-c3cccn3C)cc21 (stereo unspecified) | inactive: 3.11% |  |
| CCc1cccc(NC(=O)COC(=O)c2cn(CC)c3nc(C)ccc3c2=O)c1 | inactive: -5.91% |  |
| COc1ccc(CNC(=O)c2ccc(-c3nc(CSc4ccccc4)c(C)o3)cc2)cc1OC | inactive: -23.1% |  |
| CCCc1cc(=O)[nH]c(SCC(=O)N2CCN(c3ccccc3)CC2)n1 | inactive: -17.7% |  |
| COc1ccc(CNC(=O)CSCc2nc(-c3ccccc3C)oc2C)cc1 | inactive: -12.1% |  |
| COc1ccccc1C(=O)Nc1ccccc1OCc1cc(=O)n2c(C)csc2n1 | inactive: -1.63% |  |
| CC(C)c1nn2c(=O)cc(COC(=O)c3ccc(NC(=O)COc4ccccc4)cc3)nc2s1 | inactive: -11.5% |  |
| COc1ccc(NC(=O)CN2C(=O)CCn3nc(-c4cccn4C)cc32)cc1Cl | inactive: -21% |  |
| O=S(=O)(c1ccc(-c2cc(C(F)(F)F)on2)s1)N1CCN(c2ccccc2F)CC1 | inactive: 3.58% |  |
| COC(=O)c1ccccc1NC(=O)c1cc(-c2ccccc2O)no1 | inactive: -27.2% |  |
| CC(=O)Nc1nonc1-c1nnc(SCC(=O)Nc2ccc(C)cc2)n1-c1ccccc1 | inactive: -17.3% |  |
| CCOC(=O)c1sc2cccc(F)c2c1S(=O)(=O)NCc1ccccc1Cl | inactive: -28.6% |  |
| O=C(CS(=O)(=O)c1cccc2nsnc12)N1CCN(c2cccc(Cl)c2)CC1 | inactive: -15.7% |  |
| COc1ccc(-c2cc(-c3ccccc3)c(C#N)c(SCC(O)CS(=O)(=O)Cc3ccc(Cl)cc3)n2)cc1 (stereo unspecified) | inactive: -28.4% |  |
| CCCN1CCN(c2ncnc3sc(C(=O)Nc4ccc(C(C)C)cc4)c(C)c23)CC1 | inactive: -26.2% |  |
| COc1cccc(N2CCN(C(=O)c3ccc(C)c(NC(=O)c4nsc5ccccc45)c3)CC2)c1 | inactive: 5.58% |  |
| COc1cc(SC)ccc1C(=O)Nc1ccc(S(=O)(=O)Nc2nccc(C)n2)cc1 | inactive: -0.598% |  |
| Cc1ccc(C(c2sc3nc(-c4ccco4)nn3c2O)N2CCCC2)cc1 (stereo unspecified) | inactive: 8.63% |  |
| Cc1cccc(NC(=O)Cn2nnc(-c3nc(-c4ccncc4)no3)c2N)c1 | inactive: 11.1% |  |
| COc1ccc(CN2CCc3c(c(=O)n4ncc(C(=O)N5CCN(c6ccccc6OC)CC5)c4n3C)C2)cc1 |  | active: 1.78 µM |

| SMILES | activity change, negative = inhibition | Potency |
| --- | --- | --- |
| Cc1ccc(NC(=O)CN2C(=O)c3ccccc3Sc3ccc(C(=O)N4CCOCC4)cc32)cc1F | inactive: -33.6% |  |
| CC(C)OC(=O)C(C)(C)Oc1ccc(C(=O)c2ccc(Cl)cc2)cc1 | inactive |  |
| CCc1cccc(NC(=O)Cn2c(C(=O)OC)cc3sc(Cl)cc32)c1 | inactive: -22.8% |  |
| CCN(CC)CCNC(=O)C1CCN(C(=O)c2cnn(-c3ccccc3)c2-n2cccc2)CC1 | inactive: -9.82% |  |
| Cc1ccc(NC(=O)CSc2nc(=O)cc(N)n2-c2ccccc2)cc1 | inactive: -5.56% |  |
| Cc1ccc2nc(NC(=O)CSc3[nH]c(=O)ncc3C)sc2c1 | inactive: 44% |  |
| CC(=O)NCCNC(=O)CCCn1c(=O)[nH]c2ccsc2c1=O | inactive: 3.3% |  |
| CNC[C@@H](O)[C@@H](O)[C@H](O)[C@H](O)CO | inactive: 6.3% |  |
| Cc1ccc(-n2c(/C=C/c3c(C)n(C)c4ccccc34)nc3ccccc3c2=O)cc1 | inactive: -2.25% |  |
| Cc1ccc(C)c(NS(=O)(=O)c2cc3c(cc2C)n(C)c(=O)c(=O)n3C)c1 | inactive: -7.76% |  |
| CCOC(=O)c1c(NC(=O)Cc2coc3cc(C)cc(C)c23)sc2c1CCC2 | inactive: -5.59% |  |
| CC(=O)c1ccc(NC(=O)c2cc(C)nn2-c2ccccc2)cc1 | inactive: 4.03% |  |
| COCCN(CCOC)S(=O)(=O)c1ccc(C(=O)Nc2sc3c(c2C(=O)OC)CCN(C)C3)cc1 | inactive: -11.2% |  |
| CCOc1cccc(C(=O)Nc2ccc(-c3nc4ncccc4o3)cc2C)c1 | inactive: -0.878% |  |
| CN(C)S(=O)(=O)N(CC(=O)NCCSCc1c(F)cccc1Cl)c1ccccc1 | inactive: -25.4% |  |
| CCOC(=O)c1ccccc1NC(=O)c1sc2nc3n(c(=O)c2c1C)CCCCC3 | inactive: -11% |  |
| COC(=O)c1c(NC(C)=O)c2c3c(sc2n1Cc1cc(C)ccc1C)CCCC3 | inactive: 10.8% |  |
| Cc1cccc(-n2c(C)cc(C(=O)C(=O)Nc3ccccc3F)c2C)c1C |  | active: 8.91 µM |
| CCCN1CCN(CCCNC(=O)c2cc3c(=O)n(CC)c4ccccc4c3s2)CC1 | inactive: 12.4% |  |
| O=c1[nH]c(SCc2c(F)cccc2Cl)nc2c1CCC2 | inactive: -15.6% |  |
| COc1ccc(C(=O)c2oc3ccccc3c2NC(=O)c2cc(=O)c3ccc(C)cc3o2)cc1Cl | inactive: 6.33% |  |
| Cc1cccc(C(=O)Nc2nnc(S(=O)(=O)N(C)Cc3ccccc3)s2)c1 | inactive: -10.3% |  |
| CCOc1ccc(-c2cccc(NS(=O)(=O)c3ccc(F)cc3F)c2)nn1 | inactive: -14.1% |  |
| COc1ccc(-c2noc(CNC(=O)c3ccccc3Br)n2)cc1 | inactive: -22.7% |  |
